This passage reports binding signal results from article PMC7819943, “Rice protein-binding microarrays: a tool to detect cis-acting elements near promoter regions in rice”.

The list shows a part of the results.

The target of the assay is T1, OsWOX13 (Oryza sativa, UniProt Q5QMM3 1-267).
T1 sequence: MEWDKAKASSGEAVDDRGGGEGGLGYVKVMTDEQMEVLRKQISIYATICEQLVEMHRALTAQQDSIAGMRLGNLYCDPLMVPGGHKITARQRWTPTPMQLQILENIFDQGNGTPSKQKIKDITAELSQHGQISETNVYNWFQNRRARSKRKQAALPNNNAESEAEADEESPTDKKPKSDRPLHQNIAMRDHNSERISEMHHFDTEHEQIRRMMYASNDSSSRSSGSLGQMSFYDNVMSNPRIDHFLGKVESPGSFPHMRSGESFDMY
In words: protein-binding microarray (RPBM); PBS, 2% BSA, 51.3 ng/ul salmon testes DNA, 50 uM zinc acetate, 200 nM TF, 25 C, 1 h; high values mean tight binding. The settings on record: protein: recombinant; tags: N-terminal polyhistidine and DsRed monomer fusion (pET32a); label: CyDye5-dUTP incorporated in the synthesized complementary strand; 3' TTTTT single-stranded linker to array surface; dsDNA, one strand shown. The method in brief: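 Binding signal here means per-feature fluorescence intensity in arbitrary units. The values were read on an Axon 4000B scanner after a custom Agilent array, double-stranded by primer extension with Cy5-dUTP, was incubated with 200 nM protein at 25 °C for 1 h in PBS with 2% BSA, salmon testes DNA and 50 µM zinc acetate, then washed. The proteins were transcription factors with an N-terminal polyhistidine tag and DsRed, expressed in E. coli BL21-CodonPlus and purified on Ni–NTA.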
As to “TGGGAGATAAATTGAACTTATTCCTATATAGATCAGCTTCCGGAGTCACCTAGTGCAG”, the binding signal was 6420 fluorescence intensity (a.u.).

In the case of “TTTTCATAATTTAACTCATAAAATCAAATAAGTGAACTTTCGGAGTCACCTAGTGCAG”, the binding signal was 3740 fluorescence intensity (a.u.). Consider “CAAAATTTGAATTTTGAAATTAATTTTAGAGTTGATTTGGCGGAGTCACCTAGTGCAG”, for which the binding signal is 33400 fluorescence intensity (a.u.). As for “CTACCGCTAATTTTACATGGGCAATAACTACGAATAAGTTCGGAGTCACCTAGTGCAG”, the binding signal was 3700 fluorescence intensity (a.u.). With “TCTTGATTCCCAAATCATTCCGTGCTCTTCACCTAATGATCGGAGTCACCTAGTGCAG”, the binding signal was 5220 fluorescence intensity (a.u.). For the sequence “AATTAGTGATACTAGAATTAATTACTGTGCGCACTGCCGGCGGAGTCACCTAGTGCAG”, the binding signal is 4830 fluorescence intensity (a.u.).

Consider “CTAATTGAAGTTGATATTTTACATCCCTTGGTCATGAACTCGGAGTCACCTAGTGCAG”, for which the binding signal was 27100 fluorescence intensity (a.u.). On to “CCATCACATCCGTTGGCCTAATTGATTTGTGAAGCATCAACGGAGTCACCTAGTGCAG”, for which the binding signal was 4240 fluorescence intensity (a.u.). As to “GTTGTTGATGTACTGATTATATGTACATCGATGTAACTGTCGGAGTCACCTAGTGCAG”, the binding signal is 11300 fluorescence intensity (a.u.).

For “TCAAATCACTGCAACATTAGATCTATAAATAGTGAAGCAGCGGAGTCACCTAGTGCAG”, the binding signal was 4870 fluorescence intensity (a.u.). For “TATTCTAATTTTGGTCGTTATCCAAACGTTTCCATGAACACGGAGTCACCTAGTGCAG”, the binding signal is 4160 fluorescence intensity (a.u.). “CTAAATAACAAAGATTTCTTATTGGTGACAACTGACAAGCCGGAGTCACCTAGTGCAG”: the binding signal was 4060 fluorescence intensity (a.u.). For “ATGATCTTTCTAAATCCAATCAAATTTCATAATGGTACTACGGAGTCACCTAGTGCAG”, the binding signal is 6080 fluorescence intensity (a.u.). “TTCGGTAATTTCAGCATTACACGTTGCTGAATAATTTTGACGGAGTCACCTAGTGCAG”: the binding signal was 4300 fluorescence intensity (a.u.). For the sequence “GGGTCAATCCCTCAGGAGATTGGAAATCTTGTGAATCTCCCGGAGTCACCTAGTGCAG”, the binding signal was 10700 fluorescence intensity (a.u.). The same measure for “ATTAGTGTCTAAACATATGATTTGATGGCAACTAAGGGCTCGGAGTCACCTAGTGCAG”: 7620 fluorescence intensity (a.u.); for “GTAATTACAGCTCATGATTTTCTCTCTCTCTCTCTCTCTACGGAGTCACCTAGTGCAG”: 20000 fluorescence intensity (a.u.); for “AGGGTCTCTCTCAAATTAGCACTAATTCAAACCAACGGAACGGAGTCACCTAGTGCAG”: 3180 fluorescence intensity (a.u.). Next, “TATTTATAATTGGTATCAAACATCTGATATGATAGGGACTCGGAGTCACCTAGTGCAG”: 35700 fluorescence intensity (a.u.). For the sequence “AATAGTTGATAGCAACAGTCAAGATTGTGCATTGAGGTCACGGAGTCACCTAGTGCAG”, the binding signal was 7500 fluorescence intensity (a.u.). On to “CTCTAACGAAAGGTTGGTCAAGATACGGAAACGGGAGAGGCGGAGTCACCTAGTGCAG”, for which the binding signal was 5100 fluorescence intensity (a.u.). On to “AACTGTTTAAATTACATGCATAGGTGATATGGCACTTAGGCGGAGTCACCTAGTGCAG”, for which the binding signal was 3660 fluorescence intensity (a.u.). Consider “CTAAACAAAATTTAAGATGTGAAAATATCATCTCTCCAAGCGGAGTCACCTAGTGCAG”, for which the binding signal was 11000 fluorescence intensity (a.u.). For the sequence “GTCATCATTGATTGATATGATTTTGTATGTGTGAGCAATGCGGAGTCACCTAGTGCAG”, the binding signal was 59400 fluorescence intensity (a.u.). Turning to “TCAATGATTTTGTGCAACATCCCAAATAAACTAGAACTAACGGAGTCACCTAGTGCAG”, the binding signal was 5420 fluorescence intensity (a.u.). Take “CTAATTATCGTAATCGCTAATTTAAATCCATGCATTTGGGCGGAGTCACCTAGTGCAG”: the binding signal was 16700 fluorescence intensity (a.u.). Next, “TATGATTGATTGGAGGGATCAATTAATTACTCATTCTCCACGGAGTCACCTAGTGCAG”: 64700 fluorescence intensity (a.u.); “GGCTGAATTGCAAATCATATGCGTTTGAGAGGATTAGGTACGGAGTCACCTAGTGCAG”: 14200 fluorescence intensity (a.u.); “CTGTAAATTTCGTTGACGGCCGTCGCCCGAGAGCGAACGGCGGAGTCACCTAGTGCAG”: 5000 fluorescence intensity (a.u.). Consider “GTCAATAGCAATCAAGACGGACGGAAAACAATGTGGACTTCGGAGTCACCTAGTGCAG”, for which the binding signal is 10800 fluorescence intensity (a.u.). Next, “AAGTAATTGGAAGATGTATTTTAATAAGAGTTCAAATAGACGGAGTCACCTAGTGCAG”: 16500 fluorescence intensity (a.u.).

“TCATTTGACTCACTAATTTCCGAATTGGTACTGTCTAACACGGAGTCACCTAGTGCAG”: the binding signal was 5610 fluorescence intensity (a.u.). As to “TTGCCTTTATTTCTCGTTGATTGCAGGATCAAATCAACTGCGGAGTCACCTAGTGCAG”, the binding signal was 18100 fluorescence intensity (a.u.). For “GAAAACAGAAACAACTTAATTTGTTGCTCTACCAATTGTTCGGAGTCACCTAGTGCAG”, the binding signal is 11600 fluorescence intensity (a.u.).

Regarding “CTTGATGGTAATCATGGTATCTTGTGATGGTACCTGTCCACGGAGTCACCTAGTGCAG”, the binding signal is 22400 fluorescence intensity (a.u.). With “TATTACTAAGTGATTGTTTACAAGTTCGAGCGGACGGGCACGGAGTCACCTAGTGCAG”, the binding signal is 3800 fluorescence intensity (a.u.). For the sequence “AAGTAGCGTTTAATGCATAATTAATTAAGTACTCCCTCCACGGAGTCACCTAGTGCAG”, the binding signal is 4200 fluorescence intensity (a.u.). Turning to “AATTCGCATGATTGTTTTCGTTTTGTTGGTCAGTGAATGACGGAGTCACCTAGTGCAG”, the binding signal is 15800 fluorescence intensity (a.u.). “CTGATGATTGGTCAGCAGAGAAGACAGGTGGGATATCGAGCGGAGTCACCTAGTGCAG”: the binding signal is 52900 fluorescence intensity (a.u.).

Regarding “CAATAATTTAGGGAGTCGTCCTATCCGGTTTTACAGTTAACGGAGTCACCTAGTGCAG”, the binding signal was 8720 fluorescence intensity (a.u.). In the case of “TCAAGCTGCTAATCAATTGATATCAACTATATTATGGAAACGGAGTCACCTAGTGCAG”, the binding signal was 14600 fluorescence intensity (a.u.). In the case of “AATGATCAATATTGGCACGATGACTGTGTTTATTTCCTTTCGGAGTCACCTAGTGCAG”, the binding signal is 3770 fluorescence intensity (a.u.).
